Experimental findings from paper PMC6400076 (Frontiers in Microbiology, 2019) are described below.

This experiment deals with T1, SpGAPDH (Streptococcus pyogenes, UniProt P68777).
T1 construct: gene gap
The experiment can be described thus: X-ray crystal structure, […] Å. The settings on record: holoenzyme, NAD+ in active site of each protomer.

SMILES strings stand for the structures.

T1 sequence (P68777 whole entry): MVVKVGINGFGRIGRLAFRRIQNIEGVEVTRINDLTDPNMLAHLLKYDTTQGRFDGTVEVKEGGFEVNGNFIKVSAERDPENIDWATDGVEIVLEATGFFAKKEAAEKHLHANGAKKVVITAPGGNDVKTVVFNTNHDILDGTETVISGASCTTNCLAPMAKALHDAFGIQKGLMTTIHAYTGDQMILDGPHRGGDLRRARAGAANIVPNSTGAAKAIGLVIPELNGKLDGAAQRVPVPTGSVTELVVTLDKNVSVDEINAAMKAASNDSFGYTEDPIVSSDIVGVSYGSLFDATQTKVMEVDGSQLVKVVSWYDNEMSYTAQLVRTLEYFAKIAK

With `NC(=O)c1ccc[n+]([C@@H]2O[C@H](COP(=O)(O)OP(=O)(O)OC[C@H]3O[C@@H](n4cnc5c(N)ncnc54)[C@H](O)[C@@H]3O)[C@@H](O)[C@H]2O)c1` [NAD+], the “X-ray crystal structure, 1.50 Å” value is reported as “Both crystal structures correspond to the holoenzymes with the NAD+ cofactor deeply buried”.
